According to the antibiotic and cytotoxicity screens of Wong et al. (2023):
Some of the results follow.

Each compound was assayed on S. aureus RN4220 (assay: growth inhibition call (relative growth <= 0.2)). Details: 50 µM.

Growth inhibition call, inactive:
Cc1ccc(S(=O)(=O)Nc2cccc3c2O[C@@H](CN(C)Cc2ccc(C(F)(F)F)cc2)[C@H](C)CN([C@H](C)CO)C3=O)cc1, Cc1noc(C)c1S(=O)(=O)N(C)C[C@H]1Oc2ccc(NS(=O)(=O)c3cn(C)cn3)cc2C(=O)N([C@H](C)CO)C[C@H]1C, O=C(O)c1csc2c1CCCCC2, C[C@@H]1CN([C@H](C)CO)C(=O)c2cccc(NS(=O)(=O)c3cccs3)c2O[C@H]1CN(C)Cc1ccc(Oc2ccccc2)cc1, C[C@@H]1CCCCO[C@H](CN(C)Cc2ccc(C(F)(F)F)cc2)[C@@H](C)CN([C@H](C)CO)C(=O)c2cc(NC(=O)c3ccncc3)ccc2O1, NNC(=O)CNc1ccc2c(c1)OCO2, CC(=O)N1CC(=O)N(c2cnn(C)c2)C[C@]12CCN(C(=O)N(C)C)C2, Cc1noc(C)c1NC(=O)Nc1ccc2c(c1)CC(=O)N([C@H](C)CO)C[C@H](C)[C@H](CN(C)Cc1ccc(Oc3ccccc3)cc1)O2, Cn1c(=O)[nH]c(=O)c2c1ncn2CCN1CCOCC1, C[C@H]1CCCCO[C@@H](CN(C)S(C)(=O)=O)[C@@H](C)CN([C@@H](C)CO)C(=O)c2cc(N(C)C)ccc2O1, CC(C)CC#Cc1cnc2c(c1)C(=O)N([C@H](C)CO)C[C@H](C)[C@@H](CN(C)C(=O)CCN1CCCCC1)O2, C[C@H](CO)N1C[C@H](C)[C@@H](CN(C)CC2CCCCC2)Oc2c(NC(=O)Cn3cnnn3)cccc2C1=O
